Hit rate of the full screen: of about 410,000 compounds, about 5,000 (1.2%) were called active. Inconclusive means that the source gave no clear call. Such entries were picked first, then a sample of the others. Calls follow the shape of the dose curve; as a rule, active = well fitted inhibition curve with a large enough effect; inconclusive = small, poorly fitted or top-dose-only effect; inactive = no such curve, though single readings can be large or run the other way. Potencies of inconclusive entries are doubtful fits and often do not repeat.
Experiment: qHTS for Inhibitors of TGF-b; also: nearly all actives have a fitted effect of over 65% in size
Conditions: HepG2 CAGA-GFP TGF-b/SMAD3 reporter, GFP fluorescence, 18 h, TGF-beta stimulated, 500 pg/mL final; series mostly up to 46.1 µM
How it was run: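 HEPG2 CAGA-GFP, 1000 cells/well; 2 h settle, 37 C; cpd via pin tool; TGF-b 500 pg/mL final; 18 h, 37 C; GFP imaging ex488/em500-530; %Activity normalised to -TGF-b and +DMSO controls; CRC fit, curve class.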
Potency is read from the fitted curve at half-maximal effect; tags tell the direction and shape of the fitted curve.

Row | SMILES | Potency
1 | COC(=O)Cc1ccc(OC(=O)CCS(=O)(=O)c2ccc(C)cc2)cc1 | inconclusive: 0.794 µM [inhibitor, full curve, poor fit]
2 | COc1ccccc1Cc1c(-c2ccccc2)nc2c(C)cc(Br)cn12 | inconclusive: 12.6 µM [inhibitor, partial curve, poor fit]
3 | O=C(NCCC1CCCCN1S(=O)(=O)c1ccccc1)C(=O)Nc1ccc(F)cc1 (stereo not drawn) | inactive
4 | O=C(Nc1ccc(CN2CCOCC2)cc1)c1ccc(-c2ccc(Cl)cc2Cl)o1 | inconclusive: 22.4 µM [inhibitor, single point]
5 | NC(=S)N/N=C/c1cccc(Br)c1 | inactive
6 | CCOC(=O)C1=CN(Cc2cccc(F)c2)S(=O)(=O)N(CC)C1c1ccccc1 (stereo not drawn) | inconclusive: 35.5 µM [inhibitor, single point]
7 | Cc1cccc(-c2nc(SCC(=O)Nc3ccc4c(c3)OCCO4)c(-c3ccccc3)[nH]2)c1 | inconclusive: 35.5 µM [inhibitor, single point]
8 | CCc1nn2c(=O)cc(COC(=O)C(c3ccccc3)c3ccccc3)nc2s1 | inconclusive: 3.16 µM [inhibitor, partial curve, poor fit]
9 | COc1ccc(C)cc1S(=O)(=O)N(C)CC(=O)NCc1ccco1 | inactive
10 | CC(C)c1c(C(=O)N/N=C/c2ccsc2)nnn1-c1nonc1N | inactive
11 | Cc1cc(C)cc(N(CC(=O)NCc2ccccc2Cl)S(=O)(=O)c2c(C)noc2C)c1 | inconclusive: 15.8 µM [inhibitor, single point]
12 | CCOC(=O)Nc1ccc2c(c1)C(=NNC(=S)NC)c1ccccc1-2 | inconclusive: 1.58 µM [inhibitor, full curve, poor fit]
13 | COC(=O)CC1Oc2ccccc2-n2cc(-c3ccc(Cl)cc3)nc21 (stereo not drawn) | inactive
14 | COc1ccc(CC(=O)Nc2cccc(C)n2)cc1OC | inconclusive: 17.8 µM [inhibitor, single point]
15 | O=C(CN1CCc2cc3c(cc2C1)OCCCO3)Nc1ccc(F)cc1 | inconclusive: 35.5 µM [inhibitor, partial curve, poor fit]
16 | CC1=C([N+](=O)[O-])C(c2ccccc2)C2=C(N1)c1ccccc1C2=O (stereo not drawn) | inconclusive: 17.8 µM [inhibitor, partial curve, poor fit]
17 | CCCCn1c(SCC(=O)Nc2cc(C(F)(F)F)ccc2Cl)nnc1C(CC)N(C)C (stereo not drawn) | inactive
18 | COC(=O)COc1ccc(S(=O)(=O)N2CCc3ccccc3C2)cc1C | inconclusive: 35.5 µM [inhibitor, partial curve, poor fit]
19 | COc1ccc(CC(=O)N2CCN=C2SCc2ccc([N+](=O)[O-])cc2)cc1 | inconclusive: 14.1 µM [inhibitor, single point]
20 | COC(=O)N1C(=O)[C@@](c2ccccc2)(C2CCCC2)N1C(=O)OC | inconclusive: 25.1 µM [inhibitor, partial curve, poor fit]
21 | Cn1c(=O)c2c(nc(NCCNC(=O)c3ccco3)n2Cc2ccccc2Cl)n(C)c1=O | inactive
22 | O=C(Nc1cc(C(F)(F)F)ccc1Cl)c1ccc(NC(=O)C(F)(F)F)cc1 | inconclusive: 35.5 µM [inhibitor, single point]
23 | COc1cccc(CNc2nc3cc(-c4cccc(Cl)c4)sc3c(=O)n2C)c1OC | inconclusive: 12.6 µM [inhibitor, partial curve, poor fit]

Row | SMILES | Potency
24 | CC1(C)Cc2c(c(N3CCCCC3)[nH]c(=S)c2C#N)CS1 | inactive
25 | COCCCNC(NC(=O)c1ccc(Cl)cc1)C(Cl)(Cl)Cl (stereo not drawn) | inactive
26 | O=C(Cn1c(=O)oc2cc(S(=O)(=O)NC3CCCC3)ccc21)Nc1ccc(F)c(F)c1 | inconclusive: 35.5 µM [inhibitor, partial curve, poor fit]
27 | CC(NC(=O)c1cc2c(s1)CS(=O)(=O)C2)c1ccccc1 (stereo not drawn) | inactive
28 | O=C(NCCN1CCOCC1)C1(C(F)(F)F)C/C(=C/CCO)CCCO1 (stereo not drawn) | inactive
29 | CCOc1ccccc1NC(=O)Cn1nnc(C(=O)Nc2ccc(C)c(C)c2)c1N | inconclusive: 35.5 µM [inhibitor, single point]
30 | COc1cnc(-c2ccccc2)nc1Oc1cccc(C)c1C | inconclusive: 35.5 µM [inhibitor, single point]
31 | CCn1c(SCC(=O)NC2CCCc3ccccc32)nnc1-c1cccs1 (stereo not drawn) | inconclusive: 35.5 µM [inhibitor, single point]
32 | O=C(Nc1ccc(S(=O)(=O)NCC2CCCO2)cc1)c1ccc(F)cc1 (stereo not drawn) | inconclusive: 35.5 µM [inhibitor, partial curve, poor fit]
33 | CC(C(=O)NCc1ccccc1Cl)N1C(=O)c2ccccc2C1=O (stereo not drawn) | inactive
34 | Cc1ccc(C2=CC(c3ccc(N(C)C)cc3)n3nnnc3N2)cc1 (stereo not drawn) | inactive
35 | CC(C)C[C@H](NC(=O)c1nc[nH]c1C(=O)NCCCCCN)C(=O)OCc1ccccc1 | inactive
36 | Cc1ccc(OCC(=O)Nc2ccccc2N2CCCC2)c(C)c1 | inactive
37 | COc1cc(CN2CCC(C)CC2)ccc1OCc1ccccc1 | inconclusive: 2.82 µM [inhibitor, partial curve, poor fit]
38 | CCCCCC(=O)N1C[C@H](O)[C@@H](n2cc(-c3ccc(F)cc3)nn2)C[C@@H]1c1ccc(Cl)cc1 | inconclusive: 35.5 µM [inhibitor, single point]
39 | COc1ccc(CCNC(=O)COc2ccc(S(=O)(=O)NC3CCCCC3)cc2Cl)cc1 | active: 14.1 µM
40 | Cn1nc(C(F)(F)F)c2cc(C(=O)NC3CC3)sc21 | inactive
41 | CC[C@]12c3[nH]c4ccc(OC)cc4c3CCN1C(=O)C(CC(=O)NCc1cccc(C(F)(F)F)c1)C[C@@H]2C(=O)N1CCN(C(=O)c2ccco2)CC1 (stereo partly drawn) | inconclusive: 25.1 µM [inhibitor, single point]
42 | O=C1C=C(/C=C/c2ccccc2)C[C@@H](c2ccc3c(c2)OCO3)C1 | inconclusive: 35.5 µM [inhibitor, single point]
43 | COc1ccc(CCN2CC(C(=O)NCCN3CCOC3=O)CCC2=O)cc1 (stereo not drawn) | inactive
44 | Cc1ccc(C(c2sc3nc(-c4ccco4)nn3c2O)N2CCN(Cc3ccccc3)CC2)cc1 (stereo not drawn) | inconclusive: 22.4 µM [inhibitor, single point]
45 | CCN(Cc1ccccc1)C(c1ccc(Cl)cc1)c1nnnn1C(C)(C)C (stereo not drawn) | inconclusive: 8.91 µM [inhibitor, partial curve, poor fit]
46 | CC(=O)N1CC(C)Sc2ccc(S(=O)(=O)NC3CCCCC3C)cc21 (stereo not drawn) | inactive

Row | SMILES | Potency
47 | Cc1ccc(NC(=O)Nc2ccc(F)c(Cl)c2)cc1 | inactive
48 | Cc1[nH]c2ccccc2c1C(c1ccncc1)N1CCN(c2ccc(F)cc2)CC1 (stereo not drawn) | inconclusive: 8.91 µM [inhibitor, partial curve, poor fit]
49 | CC12CCC(C/C1=N/NC(=O)Nc1ccccc1)C2(C)C (stereo not drawn) | inconclusive: 0.1 µM [inhibitor, full curve, poor fit]
50 | O=C(CSc1nnc(-c2ccccc2)n1-c1ccc(Cl)cc1)NNC(=S)Nc1ccccc1 | inactive
51 | COc1ccccc1C(C#N)N1N=C(C)CC1c1ccccc1 (stereo not drawn) | inconclusive: 14.1 µM [inhibitor, single point]
52 | N#Cc1ccc(-c2nc3c4ccccc4ccn3c2Cc2ccccc2C(F)(F)F)cc1 | inconclusive: 12.6 µM [inhibitor, partial curve]
53 | CC(OC(=O)c1ccc(-n2cnnn2)cc1)C(=O)Nc1ccc(F)c(F)c1F (stereo not drawn) | inactive
54 | CCCCn1nc(NC(=O)c2cccs2)c2cc3ccccc3nc21 | inconclusive: 11.2 µM [inhibitor, partial curve, poor fit]
55 | Clc1ccc(SCCOCCN2CCCCC2)cc1 | inactive
56 | COc1cc(N2C(=O)C=CC2=O)ccc1N1C(=O)C=CC1=O | inconclusive: 22.4 µM [inhibitor, single point]
57 | O=C(Cn1nc(Cc2cccnc2)c2ccccc2c1=O)Nc1cccc(C(F)(F)F)c1 | inconclusive: 35.5 µM [inhibitor, single point]
58 | CC(=O)N1CCCc2cc(S(=O)(=O)N3CCN(c4ccc(F)cc4)CC3)ccc21 | inconclusive: 17.8 µM [inhibitor, single point]
59 | CCC(=O)OCCCNc1nc(-c2ccc(Cl)cc2)nc2ccccc12 | inconclusive: 20 µM [inhibitor, single point]
60 | CCc1cccc(-n2nnc(-c3nc(-c4cccs4)no3)c2N)c1 | inactive
61 | O=C(CCOc1ccccc1)N1CCN(S(=O)(=O)c2ccccc2F)CC1 | inconclusive: 35.5 µM [inhibitor, single point]
62 | COc1ccc(CN(C)C(=O)c2cccc(S(=O)(=O)N3CCc4ccccc43)c2)c(OC)c1 | inconclusive: 20 µM [inhibitor, single point]
63 | CSC1=C(C#N)C(c2ccccc2)C(C(C)=O)=C(C)N1 (stereo not drawn) | inconclusive: 4.47 µM [inhibitor, single point]
64 | COc1cccc(OC)c1C(=O)Nc1cccc(-c2nc3cc(C)cc(C)c3o2)c1 | inconclusive: 0.398 µM [inhibitor, full curve, poor fit]
65 | CCCN(CCC)S(=O)(=O)c1ccc2c(c1)CCCN2C(C)=O | inactive
66 | CC(C)c1ccccc1OCC(O)CN1CCN(S(=O)(=O)c2ccc([N+](=O)[O-])cc2)CC1 (stereo not drawn) | inactive
67 | Cc1nc(-c2ccc(S(=O)(=O)NCc3cccnc3)s2)cs1 | inactive
68 | CCOc1ccc(-c2nc(SCC(=O)Nc3ccc4c(c3)OCCO4)c(-c3ccc(F)cc3)[nH]2)cc1 | inconclusive: 7.94 µM [inhibitor, partial curve, poor fit]
